# Some of the results follow. The full chains were built here from the parent and the listed change. Inactive controls read about 0.05.
# B1: TEV protease; numbered along this chain (parent)
# chain: MGESLFKGPRDYNPISSSICHLTNESDGHTTSLYGIGFGPFIITNKHLFRRNNGTLVVQSLHGVFKVKDTTTLQQHLVDGRDMIIIRMPKDFPPFPQKLKFREPQREERICLVTTNFQTKSMSSMVSDTSCTFPSGDGIFWKHWIQTKDGQCGSPLVSTRDGFIVGIHSASNFTNTNNYFTSVPKNFMELLTNQEAQQWVSGWRLNADSVLWGGHKVFMVKPEEPFQPVKEATQL
# Variants of: B1
# Experiment: raw area under fraction-flipped curve 0-4 h after induction (AUC4h, not background-subtracted), DNA-recorder readout of cleavage of the substrate (dimensionless); higher = more cleavage of the substrate by the protease variant
# Details: temperature: 34 °C; time window: 0-4 h after rhamnose induction
# 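Further: Bxb1 expression induced with 0.2% (w/v) L-rhamnose at OD600 near 0.5, cultures sampled hourly, flipped fraction per protease–substrate barcode pair counted by paired-end Illumina sequencing.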
Variant,area with substrate EKLYFQS,area with substrate ESLYFQS,area with substrate ETLYFQS,area with substrate EWLYFQS,area with substrate EVLYFQS,area with substrate ELLYFQS,area with substrate EPLYFQS,area with substrate ERLYFQS,area with substrate EMLYFQS,area with substrate EQLYFQS
MGESLFKGPRDYNPISSSICHLTNESDGHTTSLYGIGFGPFIITNKHLFRRNNGTLVVQSLHGVFKVKDTTTLQQHLVDGRDMIIIRMPKDFPPFPQKLKFREPQREERICLVTTNFQTKSMSSMVSDTSCTFPSGDCIFWKHWIQTKDGQCGSPLVSTRDGFIVGIHSASNFTNTNNYFTSVPKNFMELLTNQEAQQWVSGWRLNADSVLWGGHKVFMVKPEEPFQPVKEATQL [G138C],0.0888,0.07,0.085,0.0712,–,–,–,–,–,–
MGESLFKGPRDYNPISSSICHLTNESDGHTTSLYGIGFGPFIITNKHLFRRNNGTLVVQSLHGVFKVKDTTTLQQHLVDGRDMIIIRMPKDFPPFPQKLKFREPQREERICLVTTNFQTKSMSSMVSDTSCTFPSGDGIFWKHWIQTKDGQCGSPLVSTRDGFIVGIHSASNFTNTNNYFTSVPKNFMELLTNQVAQQWVSGWRLNADSVLWGGHKVFMVKPEEPFQPVKEATQL [E195V],0.0784,0.0849,–,–,–,–,–,–,–,–
MGESLFKGPRDYNPISSSICHLTNESDGHTTSLYGIGFGPFIITNKHLFRRNNGTLVVQSLHGVFKVKDTTTLQQHLVDGRDMIIIRMPKDFPPFPQKLKFREPQREERICLVTTNFQTKSMSSMVSDTSCTFPSGDGIFWKHWIQTKDGQCGSPLVSTRDGFIVGIHSASNFTNTNNYFTSVPKNFMELLTNQEAQQWVSGWRLNADSVLWGGHKVKMVKPEEPFQPVKEATQL [F218K],0.0692,0.0643,–,0.0803,0.0795,–,–,–,–,–
MGESLFKGPRDYNPISSSICHLTNESDGHTTSLYGIGFGPFIITNKHLFRRNNGTLVVQSLHGVFKVKDTTTLQQHLVDGRDMIIIRMPKDFPPFPQKLKFREPQREERICLVTTNFQTKSMSSMVSDTSCTFPSGDGIFWKHWIQTKDGQCGSPLVSTRDGFIVGIHSASNFTNTNNYFTSVPKNFMELLTNQEAQQWVSGWRLNADSVLWGGHKVFMTKPEEPFQPVKEATQL [V220T],0.115,0.103,–,–,–,0.117,0.115,0.0949,–,–
MGESLFKGPRDYNPISSSICHLTNESDGHTTSLYGIGFGPFIITNKHLFRRNNGTLVVASLHGVFKVKDTTTLQQHLVDGRDMIIIRMPKDFPPFPQKLKFREPQREERICLVTTNFQTKSMSSMVSDTSCTFPSGDGIFWKHWIQTKDGQCGSPLVSTRDGFIVGIHSASNFTNTNNYFTSVPKNFMELLTNQEAQQWVSGWRLNADSVLWGGHKVFMVKPEEPFQPVKEATQL [Q59A],–,–,–,–,0.0815,–,0.147,0.117,0.128,0.113
MGESLFKGPRDYNPISSSICHLTNESDGHTTSLYGIGFGPFIITNKHLFRRNNGTLVVQSLHGVFKVKDTTTLQQHLVDGRDMIIIRMPKDFPPFPQKLKFREPQREERICLVTTNFQTKSMSSMVSDTSCTFPSGDGIFWKHWIQTKDGQCGSPLVSTRDGFIVGIHSASFFTNTNNYFTSVPKNFMELLTNQEAQQWVSGWRLNADSVLWGGHKVFMVKPEEPFQPVKEATQL [N172F],–,0.0576,–,0.0707,–,–,–,0.0415,0.0741,–
MGESLFKGPRDYNPISSSICHLTNESDGHTTSLYGIGFGPFIITNKHLFRRNNGTLVVQSLHGVFKVKDTTTLQQHLVDGRDMIIIRMPKDFPPFPQKLKFREPQREERICLVTTNFQTKSMSSMVSDTSCTFPSGDGIFWKHWIQTKDGQCGSPLVSTRDGFIVGIHSASNFTNTNWYFTSVPKNFMELLTNQEAQQWVSGWRLNADSVLWGGHKVFMVKPEEPFQPVKEATQL [N178W],–,–,–,–,–,–,–,–,0.135,–
MGESLFKEPRDYNPISSSICHLTNESDGHTTSLYGIGFGPFIITNKHLFRRNNGTLVVQSLHGVFKVKDTTTLQQHLVDGRDMIIIRMPKDFPPFPQKLKFREPQREERICLVTTNFQTKSMSSMVSDTSCTFPSGDGIFWKHWIQTKDGQCGSPLVSTRDGFIVGIHSASNFTNTNNYFTSVPKNFMELLTNQEAQQWVSGWRLNADSVLWGGHKVFMVKPEEPFQPVKEATQL [G8E],–,–,–,–,–,–,–,–,–,0.127
MGESLFKGPRDYNPISSSICHLTNESDGHTTSLYGIGFGPFIITNKHLFRRNNGTLVVQSLHGVFKVKDTTTLQQHLVDGRDMIIIRMPKDFPPFPQKLKFREPQREERICLVTTNFQTKSMSSMVSDTSYTFPSGDGIFWKHWIQTKDGQCGSPLVSTRDGFIVGIHSASNFTNTNNYFTSVPKNFMELLTNQEAQQWVSGWRLNADSVLWGGHKVFMVKPEEPFQPVKEATQL [C131Y],–,0.11,–,–,–,–,–,0.134,–,0.0876
MGESLFKGPRDYNPISSSICHLTNESDGHTTSLYGIGFGPFIITNKHLFRRNNGTLVVQSLHGVFKVKDTTTLQQHLVDGRDMIIIRMPKDFPPFPQKLKFREPQREERICLVTTNFQTKSMSSMVSDTSCTFPSGDGIFWKHWIQTKDGQCGSPLVSTRDGFIVGIHSASNFTNTNNYFTSVPKNFMELLTNQEAQQWVSGWRLNADSVLWGGHKRFMVKPEEPFQPVKEATQL [V217R],–,0.0584,–,0.0461,–,–,–,0.065,–,–
MGESLFKGPRDYNPISSSICHLTNESDGHTTSLYGIGFGPFIITNKHLFRRNNGTLVVQSLHGVFKVKDTTTLQQHLVDGRDMIIIRMPKDFPPFPQKLKFREPQREERICLVTTNFQTKSMSSMVSDTSCTFPSGDGIFWKHWIQTKDGQCGSPLVSTRDGFIVGIHSASNFTNTNNYFTSVPKNFMELLTNQERQQWVSGWRLNADSVLWGGHKVFMVKPEEPFQPVKEATQL [A196R],–,0.108,0.127,–,–,–,–,–,–,–
MGESLFKGPRDYNPISSSICHLTNESDGHTTSLYGIGFGPFIITNKHLFRRNNGTLVVQSLHGVFKVKDTTTLQQHLVDGRDMIIIRMPKDFPPFPQKLKFREPQREERICLVTTNFQTKSMSSMVSDTSCTFPSGDGIFWKHWIQTKDGQCGSPLVSTRDGFIVGIHSASNFTNTNNYFTSVPKNFMELLTNQEAQQWVSGWRLAADSVLWGGHKVFMVKPEEPFQPVKEATQL [N206A],–,–,–,–,0.079,–,–,–,–,–
MGESLFKGPRDYNPISSSICHLTNESDGHTTSLYGIGFGPFIITNKHLFRRNNGTLVVQSLHGVFKVKDTTTLQQHLVDGRDMPIIRMPKDFPPFPQKLKFREPQREERICLVTTNFQTKSMSSMVSDTSCTFPSGDGIFWKHWIQTKDGQCGSPLVSTRDGFIVGIHSASNFTNTNNYFTSVPKNFMELLTNQEAQQWVSGWRLNADSVLWGGHKVFMVKPEEPFQPVKEATQL [I84P],–,–,–,0.0243,–,–,–,–,–,–

# Same assay, conditions: temperature: 34 °C; time window: 0-4 h after rhamnose induction
row,Variant,area with substrate EYLYFQS
1,MGESLFKGPRDYNPISSSICHLTNESDGHTTSLYGIGFGPFIITNKHLFRRNNGTLVVQSLHGVFKVKDTTTLQQHLVDGRDMIIIRMPKDFPPFPQKLKFREPQREERICLVTTNFQTKSMSSMVSDTSCTFPSGDGIFWKHWIQTKDGQCGSPLVSTRDGFIVGIHSASFFTNTNNYFTSVPKNFMELLTNQEAQQWVSGWRLNADSVLWGGHKVFMVKPEEPFQPVKEATQL [N172F],0.055
2,MGESLFKEPRDYNPISSSICHLTNESDGHTTSLYGIGFGPFIITNKHLFRRNNGTLVVQSLHGVFKVKDTTTLQQHLVDGRDMIIIRMPKDFPPFPQKLKFREPQREERICLVTTNFQTKSMSSMVSDTSCTFPSGDGIFWKHWIQTKDGQCGSPLVSTRDGFIVGIHSASNFTNTNNYFTSVPKNFMELLTNQEAQQWVSGWRLNADSVLWGGHKVFMVKPEEPFQPVKEATQL [G8E],0.133
3,MGESLFKGPRDYNPISSSICHLTNESDGHTTSLYGIGFGPFIITNKHLFRRNNGTLVVQSLHGVFKVKDTTTLQQHLVDGRDMIIIRMPKDFPPFPQKLKFREPQREERICLVTTNFQTKSMSSMVSDTSYTFPSGDGIFWKHWIQTKDGQCGSPLVSTRDGFIVGIHSASNFTNTNNYFTSVPKNFMELLTNQEAQQWVSGWRLNADSVLWGGHKVFMVKPEEPFQPVKEATQL [C131Y],0.14
4,MGESLFKGPRDYNPISSSICHLTNESDGHTTSLYGIGFGPFIITNKHLFRRNNGTLVVQSLHGVFKVKDTTTLQQHLVDGRDMPIIRMPKDFPPFPQKLKFREPQREERICLVTTNFQTKSMSSMVSDTSCTFPSGDGIFWKHWIQTKDGQCGSPLVSTRDGFIVGIHSASNFTNTNNYFTSVPKNFMELLTNQEAQQWVSGWRLNADSVLWGGHKVFMVKPEEPFQPVKEATQL [I84P],0.0325

# Source: the supplement of paper PMC12217912
